Molecules are shown by their SMILES. Some of the results follow. Repeats are few or missing, and single values can be far off.
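Also: cell number obtained by counting DAPI-stained nuclei in high-throughput microscope images with image analysis software, screen run in 1,536-well plates.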

One assay concerns WM115. The assay can be described thus: cell count relative to DMSO control; melanoma cells; higher = more viable cells. As to conditions: library dose: low library concentration; 72 h.
`Cc1ccc(NC(=O)c2cccc(N(C)C)c2)cc1NC(=O)c1ccc(O)cc1` + O=C1NC(=O)/C(=C/c2ccc(-c3ccc(F)cc3O)o2)S1 [AS252424] (first compound 2 µM, partner dose 1 µM) gave a cell count of 96.1%. On the same count and under the same terms, the same measure for `CC(C)(C)c1cnc(CSc2cnc(NC(=O)C3CCNCC3)s2)o1` + CCN(CC)CCCCNc1ncc2cc(-c3cc(OC)cc(OC)c3)c(NC(=O)NC(C)(C)C)nc2n1 [PD173074] (first compound 0.01 µM, partner dose 0.1 µM): 92.2%; for `Cc1ccc(NC(=O)c2cccc(N(C)C)c2)cc1NC(=O)c1ccc(O)cc1` + COc1ccc(-c2ccc3c(N4CCOCC4)nc(N4C[C@@H](C)O[C@@H](C)C4)nc3n2)cc1CO [KU0063794] (first compound 2 µM, partner dose 0.02 µM): 90.1%. Still for that read-out and setting: the same measure for `Cc1ccc(NC(=O)c2cccc(N(C)C)c2)cc1NC(=O)c1ccc(O)cc1` + O=C(Nc1ccccc1)c1cc([N+](=O)[O-])ccc1Cl [GW9662] (first compound 2 µM, partner dose 2 µM): 95.3%; for `CCc1ccc(CCOc2ccc(CC3SC(=O)NC3=O)cc2)nc1` (stereo not given) [pioglitazone] + COc1ccc(-c2ccc3c(N4CCOCC4)nc(N4C[C@@H](C)O[C@@H](C)C4)nc3n2)cc1CO [KU0063794] (first compound 2 µM, partner dose 0.02 µM): 107%.

As for `COc1cc2c(Oc3ccc4[nH]c(C)cc4c3F)ncnc2cc1OCCCN1CCCC1` [cediranib] + COC(=O)c1sccc1S(=O)(=O)Nc1ccc(Nc2ccccc2)cc1OC [GSK0660] (first compound 0.4 µM, partner dose 1 µM), the cell count came out at 106%. Same read-out and setting: the same measure for `CN(NC(=O)CC(=O)NN(C)C(=S)c1ccccc1)C(=S)c1ccccc1` + COc1ccc(-c2ccc3c(N4CCOCC4)nc(N4C[C@@H](C)O[C@@H](C)C4)nc3n2)cc1CO [KU0063794] (first compound 0.006 µM, partner dose 0.02 µM): 83.7%; for `CCc1ccc(CCOc2ccc(CC3SC(=O)NC3=O)cc2)nc1` (stereo not given) [pioglitazone] + COc1ccc(COc2ccc(Cc3cnc(N)nc3N)cc2OC)cc1 [GW2580] (first compound 2 µM, partner dose 1 µM): 104%; for `Cc1ccc(NC(=O)c2cccc(N(C)C)c2)cc1NC(=O)c1ccc(O)cc1` + CCCCCCCCCCCC1=C(O)C(=O)C=C(O)C1=O [Embelin] (first compound 2 µM, partner dose 1.2 µM): 105%. Still for that read-out and setting: as for `Cc1ccc(NC(=O)c2cccc(N(C)C)c2)cc1NC(=O)c1ccc(O)cc1` + CCN(CC)CCCCNc1ncc2cc(-c3cc(OC)cc(OC)c3)c(NC(=O)NC(C)(C)C)nc2n1 [PD173074] (first compound 2 µM, partner dose 0.1 µM), the figure is 96.4%; as for `CCc1ccc(CCOc2ccc(CC3SC(=O)NC3=O)cc2)nc1` (stereo not given) [pioglitazone] + CCCCCCCCCCCC1=C(O)C(=O)C=C(O)C1=O [Embelin] (first compound 2 µM, partner dose 1.2 µM), 98.7%; as for `COc1cc2c(Oc3ccc4[nH]c(C)cc4c3F)ncnc2cc1OCCCN1CCCC1` [cediranib] + CCCCCCCCCCCC1=C(O)C(=O)C=C(O)C1=O [Embelin] (first compound 0.4 µM, partner dose 1.2 µM), 95.5%. On the same count and under the same terms, as for `CC(C)(C)c1cnc(CSc2cnc(NC(=O)C3CCNCC3)s2)o1` + Cc1cc([N+](=O)[O-])ccc1NS(=O)(=O)c1cc(Cl)ccc1Cl [FH535] (first compound 0.01 µM, partner dose 1 µM), the figure is 87.7%. Regarding `CC(C)(C)c1cnc(CSc2cnc(NC(=O)C3CCNCC3)s2)o1` + N#Cc1c(O)c2c(-c3ccc(-c4ccccc4O)cc3)csc2[nH]c1=O [A769662] (first compound 0.01 µM, partner dose 2 µM), the cell count was 109%.

Another assay concerns WM1716. The description is as above. The settings on record: library dose: low library concentration; 72 h.
`CC(C)(C)c1cnc(CSc2cnc(NC(=O)C3CCNCC3)s2)o1` + COc1ccc2c(c1)CCC1C2CCC2(C)C(NCCCCCCN3C(=O)C=CC3=O)CCC12 [U73122] (first compound 0.01 µM, partner dose 0.4 µM) displayed a cell count of 88.4%. Consider `CC(C)(C)c1cnc(CSc2cnc(NC(=O)C3CCNCC3)s2)o1` + Oc1cc(-c2nc(-c3ccccc3)[nH]c2-c2ccncc2)ccc1Cl [L779450] (first compound 0.01 µM, partner dose 0.2 µM), for which the cell count stood at 115%. With `CC(C)(C)c1cnc(CSc2cnc(NC(=O)C3CCNCC3)s2)o1` + Cn1cc(/C=C2\C(=O)Nc3cccnc32)c2ccccc21 [GW441756] (first compound 0.01 µM, partner dose 0.4 µM), the cell count is 106%. The same measure, in the same setting: as for `CN(NC(=O)CC(=O)NN(C)C(=S)c1ccccc1)C(=S)c1ccccc1` + COc1cc2ncnc(Nc3ccc(Oc4ccccc4)cc3)c2cc1OC [SrcI1] (first compound 0.006 µM, partner dose 2 µM), the figure is 73.7%; as for `CCc1ccc(CCOc2ccc(CC3SC(=O)NC3=O)cc2)nc1` (stereo not given) [pioglitazone] + c1cc(-c2cnn3cc(-c4ccc(OCCN5CCCCC5)cc4)cnc23)ccn1 [Dorsomorphin] (first compound 2 µM, partner dose 0.4 µM), 88.6%; as for `Cc1ccc(NC(=O)c2cccc(N(C)C)c2)cc1NC(=O)c1ccc(O)cc1` + Cn1cc(/C=C2\C(=O)Nc3cccnc32)c2ccccc21 [GW441756] (first compound 2 µM, partner dose 0.4 µM), 116%.

For the compound `CN(NC(=O)CC(=O)NN(C)C(=S)c1ccccc1)C(=S)c1ccccc1` + O=c1cc(-c2cccc3c2Sc2ccccc2S3)oc(N2CCOCC2)c1 [KU55933] (first compound 0.006 µM, partner dose 1 µM), the cell count was found to be 91.8%. Regarding `CC(C)(C)c1cnc(CSc2cnc(NC(=O)C3CCNCC3)s2)o1` + O=C1NC(=O)/C(=C/c2ccc(-c3ccc(F)cc3O)o2)S1 [AS252424] (first compound 0.01 µM, partner dose 1 µM), the cell count was found to be 99.1%. Same read-out and setting: as for `CN(NC(=O)CC(=O)NN(C)C(=S)c1ccccc1)C(=S)c1ccccc1` + O=C(Nc1ccccc1)c1cc([N+](=O)[O-])ccc1Cl [GW9662] (first compound 0.006 µM, partner dose 2 µM), the figure is 68.3%.

Take `COc1cc2c(Oc3ccc4[nH]c(C)cc4c3F)ncnc2cc1OCCCN1CCCC1` [cediranib] + O=C(O)C(=O)Nc1sc2c(c1C(=O)O)CCNC2 [TCS401] (first compound 0.4 µM, partner dose 1.66667 µM): the cell count was found to be 112%.

Take `CC(C)(C)c1cnc(CSc2cnc(NC(=O)C3CCNCC3)s2)o1` + O=c1cc(-c2cccc3c2Sc2ccccc2S3)oc(N2CCOCC2)c1 [KU55933] (first compound 0.01 µM, partner dose 1 µM): the cell count stood at 114%. Take `COc1cc2c(Oc3ccc4[nH]c(C)cc4c3F)ncnc2cc1OCCCN1CCCC1` [cediranib] + CCc1ccc(CCOc2ccc(CC3SC(=O)NC3=O)cc2)nc1 [pioglitazone] (first compound 0.4 µM, partner dose 2 µM): the cell count stood at 106%.

As for `CN(NC(=O)CC(=O)NN(C)C(=S)c1ccccc1)C(=S)c1ccccc1` + O=C(O)C(=O)Nc1sc2c(c1C(=O)O)CCNC2 [TCS401] (first compound 0.006 µM, partner dose 1.66667 µM), the cell count turned out to be 80.8%. For `CN(NC(=O)CC(=O)NN(C)C(=S)c1ccccc1)C(=S)c1ccccc1` + Cn1cc(/C=C2\C(=O)Nc3cccnc32)c2ccccc21 [GW441756] (first compound 0.006 µM, partner dose 0.4 µM), the cell count turned out to be 82.4%. The same measure, in the same setting: the same measure for `Cc1ccc(NC(=O)c2cccc(N(C)C)c2)cc1NC(=O)c1ccc(O)cc1` + CCc1ccc(CCOc2ccc(CC3SC(=O)NC3=O)cc2)nc1 [pioglitazone] (first compound 2 µM, partner dose 2 µM): 94.8%.

As to `COc1cc2c(Oc3ccc4[nH]c(C)cc4c3F)ncnc2cc1OCCCN1CCCC1` [cediranib] + N#Cc1c(O)c2c(-c3ccc(-c4ccccc4O)cc3)csc2[nH]c1=O [A769662] (first compound 0.4 µM, partner dose 2 µM), the cell count worked out at 115%. Still for that read-out and setting: as for `CCc1ccc(CCOc2ccc(CC3SC(=O)NC3=O)cc2)nc1` (stereo not given) [pioglitazone] + Cc1cc([N+](=O)[O-])ccc1NS(=O)(=O)c1cc(Cl)ccc1Cl [FH535] (first compound 2 µM, partner dose 1 µM), the figure is 87.3%. Same read-out and setting: the same measure for `CCc1ccc(CCOc2ccc(CC3SC(=O)NC3=O)cc2)nc1` (stereo not given) [pioglitazone] + COC(=O)c1sccc1S(=O)(=O)Nc1ccc(Nc2ccccc2)cc1OC [GSK0660] (first compound 2 µM, partner dose 1 µM): 96.6%; for `COc1cc2c(Oc3ccc4[nH]c(C)cc4c3F)ncnc2cc1OCCCN1CCCC1` [cediranib] + COc1ccc(COc2ccc(Cc3cnc(N)nc3N)cc2OC)cc1 [GW2580] (first compound 0.4 µM, partner dose 1 µM): 92.8%. As for `Cc1ccc(NC(=O)c2cccc(N(C)C)c2)cc1NC(=O)c1ccc(O)cc1` + COc1ccc2c(c1)CCC1C2CCC2(C)C(NCCCCCCN3C(=O)C=CC3=O)CCC12 [U73122] (first compound 2 µM, partner dose 0.4 µM), the cell count was 92.3%. Same read-out and setting: the same measure for `CN(NC(=O)CC(=O)NN(C)C(=S)c1ccccc1)C(=S)c1ccccc1` + CCc1ccc(CCOc2ccc(CC3SC(=O)NC3=O)cc2)nc1 [pioglitazone] (first compound 0.006 µM, partner dose 2 µM): 78%.

The record behind these values is the supplement of paper PMC4604168 (melanoma cell lines).
